Experimental data taken from publication PMC8865542, “The Large Nonstructural Protein (NS1) of Human Bocavirus 1 Directly Interacts with Ku70, Which Plays an Important Role in Virus Replication in Human Airway Epithelia” (Journal of Virology, 2021).

Legend:
[1] = molecular target: T1, HBoV1 NS[…] with Flag and His tags (human bocavirus 1 (HBoV1)); assay: pull-down; conditions: both partners purified
T1 construct: source: E. coli BL21/DE3 pLysS, purified (His tag, Sephadex G75)

[2] = molecular target: T1, HBoV1 NS[…] with Flag and His tags; assay: BLI; conditions: both partners purified

B1: Ku70 domain B (β-barrel domain) with Strep-tag II (domain or fragment)
chain: not shown
notes: also called Strep-tagged domain B; source: E. coli BL21(DE3), purified (Strep-Tactin agarose); not shown: Strep-tag II, C-terminal, kept
binding result [1]: binds

B2: Ku70 domain C (C-terminal domain) with Strep-tag II (domain or fragment)
chain: not shown
notes: also called Strep-tagged domain C; source: E. coli BL21(DE3), purified (Strep-Tactin agarose); not shown: Strep-tag II, C-terminal, kept
Kd [2]: 180 nM
